Source: the RNAGym collection of RNA variant scans (doi:10.1073/pnas.2313332121)
This sample is rich in variants without activity.

B1: TPR 5TU (parent)
chain: GGAUCUUCUCGAUCUAACAAAAAAGACAAAUCUGCCACAAAGCUUGAGAGCAUCUUCGGAUGCAGAGGCGGCAGCCUUCGGUGGCGCGAUAGCGCCAACGUUCUCAACUAUGACACGCAAAACGCGUGCUCCGUUGAAUGGAGUUUAUCAUG

Variants of: B1
Test: polymerase ribozyme fitness, log enrichment relative to wild type (log ratio); higher = more active; in vitro selection for triplet polymerase activity
How it was run: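 A single round of triplicate in vitro selection, including frozen incubation at −7 °C, was applied to PCR-built, transcribed mutant libraries of each subunit of a heterodimeric triplet polymerase ribozyme. Illumina sequencing of input and output libraries retained genotypes with ≥10 input reads and ≥1 read per output. Fitness is the base-2 logarithm of genotype enrichment divided by wild-type enrichment, from inverse-variance-weighted replicate averages.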

Variant | polymerase ribozyme fitness (log ratio)
A52G A106C | -0.69
A52G A106G G143A | -0.542
A52G A142U | -0.597
A52G A150C | -3.43
A52G C54A | -0.998
A52G C54A A91U G94A | ≤ -4.2
A52G C57A G58A G83U C95U | -0.758
A52G C57G A73U G84A | -3.44
A52G C57G C87U | -1.27
A52G C57U U61A C87G G92A G94A C108G | ≤ -4.2
A52G C63U C76A G94C U151C | ≤ -4.2
A52G C63U C93U U145G C149U | -4.11
A52G C69G C85G A97U G126A G141U | ≤ -4.2
A52G C69G G92U C131G | ≤ -4.2
A52G C69U A106C C125U | -4.12
A52G C72U U77A C108G | ≤ -4.2
A52G C75G A91G U109G A113G | ≤ -4.2
A52G C75G G126C A137C | ≤ -4.2
A52G C75U C76U A97G C103A A107C | ≤ -4.2
A52G C76A U134C G140U G141C | ≤ -4.2
A52G C79A A120G | ≤ -4.2
A52G C79U G92A C116G | ≤ -4.2
A52G C85A U90G A107C | ≤ -4.2
A52G C85G | -2.16

Variant | polymerase ribozyme fitness (log ratio)
A52G C85G A107U U127A G143A | ≤ -4.2
A52G C85U | -0.204
A52G C87G C93G C96U U111A | ≤ -4.2
A52G C87G C93G U101G G152U | ≤ -4.2
A52G C87U G141A U148A | ≤ -4.2
A52G C93G | -3.95
A52G C93G G141C | -3.74
A52G C93U C116U | -1.48
A52G C93U G94C A97C | -3.73
A52G C96G G112C | ≤ -4.2
A52G C96U A110C G133U | ≤ -4.2
A52G C125U | -0.198
A52G G58A A60C A66U C79U U82A A91C G100C C105G G143U | ≤ -4.2
A52G G58A A97U A98G C132U A138U | ≤ -4.2
A52G G58A G70C U90A C96A | ≤ -4.2
A52G G58C C99U | -0.284
A52G G58U | -0.0148
A52G G58U C87U | -2
A52G G59A C87A C99U A119G | ≤ -4.2
A52G G65A G71U | ≤ -4.2
A52G G70C A91G | ≤ -4.2
A52G G70C U78G C93G G141C | ≤ -4.2
A52G G71A C85G U109C U144C | ≤ -4.2
A52G G74C G88C A115U C129G C131U | ≤ -4.2

Variant | polymerase ribozyme fitness (log ratio)
A52G G80A A91C C103G C125A G141U | ≤ -4.2
A52G G80A C87A A120G | ≤ -4.2
A52G G80A C105G A107U | ≤ -4.2
A52G G80U C93G | ≤ -4.2
A52G G83C C93U | -3.66
A52G G84A C116G | -2.02
A52G G84A G94U G143A | ≤ -4.2
A52G G84U A110G | ≤ -4.2
A52G G86A C93A G143A | ≤ -4.2
A52G G92A C114G A119U | ≤ -4.2
A52G G92C | -1.46
A52G G92C G124C U151C | ≤ -4.2
A52G G94C | -1.32
A52G G94C U102C C131U | -1.64
A52G G100C | ≤ -4.2
A52G G100U | -3.98
A52G U53A A119U G126C | 0.147
A52G U53A C57A A73U C87G C93A C132U A150C | ≤ -4.2
A52G U53A G67U C96A U148A | ≤ -4.2
A52G U53A G84A | -0.8
A52G U53G C85U U90G C93A | ≤ -4.2
A52G U53G G68A C116G U144G | ≤ -4.2
A52G U55A C76A A91G A138G | ≤ -4.2
A52G U55A C87G | ≤ -4.2

Variant | polymerase ribozyme fitness (log ratio)
A52G U55A G59U A60C U82C A107G C108U G152U | ≤ -4.2
A52G U55A G65C G94C U101A | ≤ -4.2
A52G U55G G58A C95G U134A U139A | ≤ -4.2
A52G U56A C69A U77G C103G A122U | ≤ -4.2
A52G U56A G86U G94A C95G | ≤ -4.2
A52G U56C G94A C108U A137C A138U | ≤ -4.2
A52G U56G G86A C95U A142C | ≤ -4.2
A52G U61A G86A G140U | ≤ -4.2
A52G U61G A73G | -2.84
A52G U78A U101G | ≤ -4.2
A52G U78C G100A C103U | ≤ -4.2
A52G U90A | ≤ -4.2
A52G U102G A110G | ≤ -4.2
A52G U104A A122G U139G | -1.23
A52G U135G U139C A147C | ≤ -4.2
A52G U144A | -0.831
A52U A60C G88U | ≤ -4.2
A52U A60G C85U C125A G128A A142U | ≤ -4.2
A52U A64U G68U A73U G92C | ≤ -4.2
A52U A66G A73G C76A C93G | ≤ -4.2
A52U A66G C85U A120C G140U | ≤ -4.2
A52U A73U A89C G92C C129G A137U | ≤ -4.2
A52U A73U C85A C108G A119C U127C G140A | ≤ -4.2
A52U A91G U134A | ≤ -4.2

Variant | polymerase ribozyme fitness (log ratio)
A52U A91U | ≤ -4.2
A52U A91U A115G C131U | ≤ -4.2
A52U A150G | -1.24
A52U C54A A64G C93U G136A U139G | ≤ -4.2
A52U C54G C93A | ≤ -4.2
A52U C54U C95U C96U C132A | ≤ -4.2
A52U C57A C95A A97U | -2.33
A52U C57A G88U C108A U135A | ≤ -4.2
A52U C57U G83C | -3.29
A52U C57U U61A A113G G124A A138C A142U | ≤ -4.2
A52U C63U C87A G140A | ≤ -4.2
A52U C69G A89C C93G C103A A150G | ≤ -4.2
A52U C69U G83C C116G | -4.13
A52U C75A G143A | ≤ -4.2
A52U C76G | ≤ -4.2
A52U C85G | ≤ -4.2
A52U C85G G133U U145G | ≤ -4.2
A52U C85U G88U U101C C103G A138U | ≤ -4.2
A52U C87A A97U U127C A142C | ≤ -4.2
A52U C93A | ≤ -4.2
A52U C95U | -1.52
A52U C96A U134G | ≤ -4.2
A52U C108A | ≤ -4.2
A52U C123G | -1.97

Variant | polymerase ribozyme fitness (log ratio)
A52U C125U | -1.42
A52U G58C U78A A122G | ≤ -4.2
A52U G58C U78A G140C A142U | ≤ -4.2
A52U G59A A60C G68C G84A C96G G133A | ≤ -4.2
A52U G59A A98G | -1.21
A52U G80C G126A G133C | ≤ -4.2
A52U G81A C87U A91G A120U U139C A142C A147U | ≤ -4.2
A52U G83A C131G | ≤ -4.2
A52U G84A | -2.18
A52U G84C C116U U146G | -4.11
A52U G84C G94U C149A | ≤ -4.2
A52U G86C | ≤ -4.2
A52U G86U C105U | -1.83
A52U G92A G140U | ≤ -4.2
A52U G92C | -2.01
A52U G92U C105A | -3.93
A52U G94A G133U G143U | -3.88
A52U U53A | -1.23
A52U U53A C57A G58C A89U | 0.000593
A52U U53A C57A G81U G83C C103G G126A | ≤ -4.2
A52U U53A G59A G71A G81U C87U | ≤ -4.2
A52U U53A U104C C129U G140U | ≤ -4.2
A52U U53G C93A G133U | ≤ -4.2
A52U U53G G88C A91C | ≤ -4.2

Variant | polymerase ribozyme fitness (log ratio)
A52U U53G U56A G65C C75U C85U U104G U127C U139A | ≤ -4.2
A52U U55A | -1.7
A52U U55A U56G A66G C99A C132U | ≤ -4.2
A52U U56A A73U C76U G83U C95A G112A A119G G140A | ≤ -4.2
A52U U56A C79G G80A G126A A138G A147C | ≤ -4.2
A52U U56A C93A C108U | ≤ -4.2
A52U U56A G83C G84A C99G A106U U144A | ≤ -4.2
A52U U56A U61A C75U C93U C99G C132G | ≤ -4.2
A52U U77A G88C A119U | ≤ -4.2
A52U U78G G83A C129A | ≤ -4.2
A52U U82A C93A C131G | ≤ -4.2
A52U U101G | -2.22
A52U U139A | ≤ -4.2
U53A | -0.874
U53A A64G A73G G80C U109A | ≤ -4.2
U53A A66G C75A C93U A106U A110U | ≤ -4.2
U53A A66G C96U C125A | ≤ -4.2
U53A A73C | -3.99
U53A A73G G74C C85A U90C | ≤ -4.2
U53A A73G G86A G92U C95U G143U | ≤ -4.2
U53A A73G U127G A150C | ≤ -4.2
U53A A73U | -2.21
U53A A89C G94A G141C | -3.63
